Data from the supplement of paper PMC8728848.
This is one part of the list.

What was measured:
Assay in all cases: glycan array binding signal (z-score within array); higher = stronger binding
Conditions in all cases: glycan notation: IUPAC condensed, linker removed
Gal(a1-3)Gal(b1-4)GlcNAc = target: Gal(a1-3)Gal(b1-4)GlcNAc
Procedure, shortened: (§1)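 The binding signal is a Z-score computed within each array and averaged over linkers. Arrays of the same protein sequence at different concentrations or buffers were also averaged together. Data originate from 3228 arrays in the Consortium for Functional Glycomics database, kept only where the protein sequence was available.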

[1] = target: Gal(a1-3)Gal(b1-4)GlcNAc(b1-2)Man
Procedure, shortened: as §1

[2] = target: Gal(a1-3)Gal(b1-4)GlcNAc(b1-2)Man(a1-3)[Gal(a1-3)Gal(b1-4)GlcNAc(b1-2)Man(a1-6)]Man(b1-4)GlcNAc(b1-4)GlcNAc
Procedure, shortened: as §1

[3] = target: Gal(a1-3)Gal(b1-4)GlcNAc(b1-3)GalNAc
Procedure, shortened: as §1

[4] = target: Gal(a1-3)Gal(b1-4)GlcNAc(b1-6)GalNAc
Procedure, shortened: as §1

[5] = target: Gal(a1-3)Gal(b1-4)[Fuc(a1-3)]GlcNAc
Procedure, shortened: as §1

[6] = target: Gal(a1-3)Gal(b1-4)[Fuc(a1-3)]GlcNAc(b1-2)Man(a1-3)[Gal(a1-3)Gal(b1-4)[Fuc(a1-3)]GlcNAc(b1-2)Man(a1-6)]Man(b1-4)GlcNAc(b1-4)GlcNAc
Procedure, shortened: as §1

Gal(a1-3)GalNAc = target: Gal(a1-3)GalNAc
Procedure, shortened: as §1

[7] = target: Gal(a1-3)[Gal(a1-4)]Gal(b1-4)GlcNAc
Procedure, shortened: as §1

[8] = target: Gal(a1-4)Gal(b1-3)GlcNAc(b1-2)Man(a1-3)[Gal(a1-4)Gal(b1-3)GlcNAc(b1-2)Man(a1-6)]Man(b1-4)GlcNAc(b1-4)GlcNAc
Procedure, shortened: as §1

Gal(a1-4)Gal(b1-4)Glc = target: Gal(a1-4)Gal(b1-4)Glc
Procedure, shortened: as §1

Gal(a1-4)Gal(b1-4)GlcNAc = target: Gal(a1-4)Gal(b1-4)GlcNAc
Procedure, shortened: as §1

[9] = target: Gal(a1-4)Gal(b1-4)GlcNAc(b1-2)Man(a1-3)[Gal(a1-4)Gal(b1-4)GlcNAc(b1-2)Man(a1-6)]Man(b1-4)GlcNAc(b1-4)GlcNAc
Procedure, shortened: as §1

[10] = target: Gal(a1-4)Gal(b1-4)GlcNAc(b1-3)Gal(b1-4)Glc
Procedure, shortened: as §1

Gal(a1-4)GlcNAc = target: Gal(a1-4)GlcNAc
Procedure, shortened: as §1

Gal(a1-6)Glc = target: Gal(a1-6)Glc
Procedure, shortened: as §1

Gal(b1-2)Gal = target: Gal(b1-2)Gal
Procedure, shortened: as §1

Gal(b1-3)Gal = target: Gal(b1-3)Gal
Procedure, shortened: as §1

Gal(b1-3)Gal(b1-4)GlcNAc = target: Gal(b1-3)Gal(b1-4)GlcNAc
Procedure, shortened: as §1

Gal(b1-3)GalNAc = target: Gal(b1-3)GalNAc
Procedure, shortened: as §1

[11] = target: Gal(b1-3)GalNAc(a1-3)[Fuc(a1-2)]Gal(b1-4)Glc
Procedure, shortened: as §1

[12] = target: Gal(b1-3)GalNAc(a1-3)[Fuc(a1-2)]Gal(b1-4)GlcNAc
Procedure, shortened: as §1

Gal(b1-3)GalNAc(b1-3)Gal = target: Gal(b1-3)GalNAc(b1-3)Gal
Procedure, shortened: as §1

[13] = target: Gal(b1-3)GalNAc(b1-3)Gal(a1-4)Gal(b1-4)Glc
Procedure, shortened: as §1

[14] = target: Gal(b1-3)GalNAc(b1-4)Gal(b1-4)Glc
Procedure, shortened: as §1

[15] = target: Gal(b1-3)GalNAc(b1-4)[Neu5Ac(a2-3)]Gal(b1-4)Glc
Procedure, shortened: as §1

Gal(b1-3)GlcNAc = target: Gal(b1-3)GlcNAc
Procedure, shortened: as §1

[16] = target: Gal(b1-3)GlcNAc(a1-3)Gal(b1-4)GlcNAc
Procedure, shortened: as §1

[17] = target: Gal(b1-3)GlcNAc(a1-6)Gal(b1-4)GlcNAc
Procedure, shortened: as §1

Gal(b1-3)GlcNAc(b1-2)Man = target: Gal(b1-3)GlcNAc(b1-2)Man
Procedure, shortened: as §1

B1: Di AAL2 (Agrocybe aegerita) (protein)
chain: MTSNVITQDLPIPVASRGFADIVGFGLDGVVIGRNAVNLQPFLAVKNFAQNAGGWLTTKHVRLIADTTGTGKGDIVGFGNAGVYVSVNNGKNTFADPPKMVIANFGYDAGGWRVEKHLRYLADIRKIGRADIIGFGEKGVLVSRNNGGLNFGPATLVLKDFGYDAGGWRLDRHLRFLADVTGNGHLDIVGFGDKHVFISRNNGDGTFAPAKSVIDNFCIDAGGWKIGDHPRFVADLTGDGTADIIGCGKAGCWVALNNGGGVFGQVKLVINDFGTDKGWQAAKHPRFIADLTGNGRGDVVGFGNAGVYVALNNGDGTFQSAKLVLKDFGVQQGWTVSKHRRFVVDLTGDGCADIIGFGEKETLVSYNDGKGNFGPVKALTNDFSFSGGKWAPETTVCWMANLDSSRHPAPAPMTSNVITQDLPIPVASRGFADIVGFGLDGVVIGRNAVNLQPFLAVKNFAQNAGGWLTTKHVRLIADTTGTGKGDIVGFGNAGVYVSVNNGKNTFADPPKMVIANFGYDAGGWRVEKHLRYLADIRKIGRADIIGFGEKGVLVSRNNGGLNFGPATLVLKDFGYDAGGWRLDRHLRFLADVTGNGHLDIVGFGDKHVFISRNNGDGTFAPAKSVIDNFCIDAGGWKIGDHPRFVADLTGDGTADIIGCGKAGCWVALNNGGGVFGQVKLVINDFGTDKGWQAAKHPRFIADLTGNGRGDVVGFGNAGVYVALNNGDGTFQSAKLVLKDFGVQQGWTVSKHRRFVVDLTGDGCADIIGFGEKETLVSYNDGKGNFGPVKALTNDFSFSGGKWAPETTVCWMANLDSSRH
glycan array binding signal (z-score) (Gal(a1-3)Gal(b1-4)GlcNAc): -0.345
glycan array binding signal (z-score) [1]: -0.325
glycan array binding signal (z-score) [2]: -0.329
glycan array binding signal (z-score) [3]: -0.333
glycan array binding signal (z-score) [4]: -0.268
glycan array binding signal (z-score) [5]: -0.339
glycan array binding signal (z-score) [6]: -0.318
glycan array binding signal (z-score) (Gal(a1-3)GalNAc): -0.326
glycan array binding signal (z-score) [7]: -0.336
glycan array binding signal (z-score) [8]: -0.333
glycan array binding signal (z-score) (Gal(a1-4)Gal(b1-4)Glc): -0.332
glycan array binding signal (z-score) (Gal(a1-4)Gal(b1-4)GlcNAc): -0.332
glycan array binding signal (z-score) [9]: 5.32
glycan array binding signal (z-score) [10]: 0.095
glycan array binding signal (z-score) (Gal(a1-4)GlcNAc): -0.34
glycan array binding signal (z-score) (Gal(a1-6)Glc): -0.33
glycan array binding signal (z-score) (Gal(b1-2)Gal): -0.333
glycan array binding signal (z-score) (Gal(b1-3)Gal): -0.332
glycan array binding signal (z-score) (Gal(b1-3)Gal(b1-4)GlcNAc): -0.337
glycan array binding signal (z-score) (Gal(b1-3)GalNAc): -0.334
glycan array binding signal (z-score) [11]: -0.322
glycan array binding signal (z-score) [12]: -0.324
glycan array binding signal (z-score) (Gal(b1-3)GalNAc(b1-3)Gal): -0.329
glycan array binding signal (z-score) [13]: -0.331
glycan array binding signal (z-score) [14]: -0.331
glycan array binding signal (z-score) [15]: -0.314
glycan array binding signal (z-score) (Gal(b1-3)GlcNAc): -0.331
glycan array binding signal (z-score) [16]: -0.327
glycan array binding signal (z-score) [17]: -0.337
glycan array binding signal (z-score) (Gal(b1-3)GlcNAc(b1-2)Man): -0.323
